Source: the supplement of paper PMC3334620
The full ranking holds about 33,000 sequences; the median of “E-score (-0.5 to 0.5)” is about -0.035, and the highest 2% start at about 0.35. Some of the results follow.

Target: T1, Pdr3 (UniProt P33200)
T1 sequence: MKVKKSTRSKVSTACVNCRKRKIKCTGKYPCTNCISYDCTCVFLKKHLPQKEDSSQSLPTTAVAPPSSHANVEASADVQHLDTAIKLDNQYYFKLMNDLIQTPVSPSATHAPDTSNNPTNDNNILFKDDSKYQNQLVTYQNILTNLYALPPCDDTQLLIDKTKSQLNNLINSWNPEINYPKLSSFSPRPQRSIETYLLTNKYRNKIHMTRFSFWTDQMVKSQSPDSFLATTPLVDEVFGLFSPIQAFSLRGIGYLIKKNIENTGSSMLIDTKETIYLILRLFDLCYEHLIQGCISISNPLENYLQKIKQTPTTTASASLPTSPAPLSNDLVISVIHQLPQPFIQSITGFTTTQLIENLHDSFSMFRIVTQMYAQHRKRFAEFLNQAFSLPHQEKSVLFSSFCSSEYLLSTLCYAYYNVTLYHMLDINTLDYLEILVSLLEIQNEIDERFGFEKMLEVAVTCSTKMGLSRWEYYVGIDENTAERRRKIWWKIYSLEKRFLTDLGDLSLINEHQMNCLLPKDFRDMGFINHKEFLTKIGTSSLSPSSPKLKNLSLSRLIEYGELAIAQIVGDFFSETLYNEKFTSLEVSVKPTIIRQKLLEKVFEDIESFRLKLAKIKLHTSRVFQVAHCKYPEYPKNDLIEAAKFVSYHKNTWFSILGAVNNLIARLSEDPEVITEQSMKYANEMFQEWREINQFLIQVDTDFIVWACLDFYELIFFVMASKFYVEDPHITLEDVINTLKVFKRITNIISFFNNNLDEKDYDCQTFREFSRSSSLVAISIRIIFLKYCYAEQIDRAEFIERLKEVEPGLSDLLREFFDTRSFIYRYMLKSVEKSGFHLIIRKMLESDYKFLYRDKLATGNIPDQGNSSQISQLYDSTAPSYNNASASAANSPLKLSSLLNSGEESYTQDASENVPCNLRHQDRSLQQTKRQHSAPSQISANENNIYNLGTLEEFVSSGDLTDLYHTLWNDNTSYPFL
Experiment: PBM E-score (8-mer binding enrichment) (E-score (-0.5 to 0.5)); higher = stronger / more preferred TF binding; most listed sequences are background and not binding sites
Details: protein concentration: 200 nM; construct: GST-full length
Procedure, shortened: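 Yeast transcription factors, full-length or as DNA-binding domains, were expressed with a GST tag using PURExpress in vitro transcription/translation. At about 100-200 nM they were applied to universal all-10-mer Agilent arrays, double-stranded by primer extension on fresh or once-stripped slides. Fluorescent anti-GST detected bound protein, and masliner normalised the scans. E-scores for ungapped eight-base words, pooled with reverse complements, came from the Universal PBM Analysis Suite.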

Sequence	PBM E-score
ACATTATC	0.0877
AATTCCTA	-0.211
CTAGGCAG	-0.159
ACGGTACC	0.149
ATGTACAA	-0.0796
CGCTCCTC	-0.248
TAACCAGA	-0.00146
ACTGCCAT	-0.0531
ACAATATA	0.145
CTATGCAA	-0.221
CTCCAGTA	-0.0529
TAAGTCTA	-0.213
GCACTGAA	-0.06
ATCAGCTC	-0.0405
ATGTAGTA	-0.0649
CGGCCCCC	-0.0763
TGTTGAAA	0.0145
CTTTAGGA	-0.234
CTAACCCA	-0.131
TGTGAGAA	-0.0175
TCCACCCA	-0.292
GAGAGTCA	-0.27

Sequence	PBM E-score
ACGGGATC	0.275
CAGCACGA	0.0254
GAACGGCA	0.256
GCCGCTAC	0.216
AGTATGTG	0.103
CACGTAAC	-0.141
GGGATTTA	0.104
AAGCTGTG	-0.203
ATGAGCTA	-0.0954
ACCATCAT	-0.187
GTTAAATA	-0.0823
AATCCTAC	-0.278
CATCAAGC	-0.0872
AGTCCAGC	-0.16
ATTCGGCA	0.245
AGTCTTAA	-0.328
CCATAACA	0.0144
ATTTCTAA	-0.0544
CCCAGAAC	-0.0485
AGCGCGAC	-0.0459
ATTGGGTC	0.162
ACCGCTCG	0.0282

Sequence	PBM E-score
CTAGCTAA	-0.0718
GTTGAGTA	-0.0945
CGGAGTTC	0.352
AATTGTGA	-0.149
AGTCCCAA	-0.0626
CGATTCCA	0.112
AACATTCC	0.252
AACCTTTG	-0.165
GGCCGCCC	0.0328
GGTTAACC	0.102
AAGCGTCA	-0.196
ATGAAACC	0.0686
CGAGGTTC	0.162
AGGTTACC	0.221
ACAGGCGC	-0.11
AGCAGAAG	-0.0531
GAAGGATA	-0.121
AAATTATC	0.116
CGTTTGAC	-0.0957
GACGTAAC	-0.171
GTGTAGGA	-0.146
AGATTGAC	-0.0268

Sequence	PBM E-score
CGAGTCAC	-0.179
CCGCGAGA	0.147
GAGCGCAA	-0.148
TCGTATCA	-0.0248
GCGGGTTA	0.269
CGCTCCGC	0.287
CCAGCACA	-0.128
TAGGCTAA	-0.288
GTAGTGAA	-0.0481
GAACAAAA	0.122
TCTTTGAA	-0.184
CACTATCA	-0.171
ATTTCTAG	0.054
ACCCAGGA	-0.301
CCCACATA	-0.0213
CAGTTCAA	-0.0317
AACCAAAA	0.078
ATCCTTTA	-0.114
ATTTATGA	0.117
ATGATCGG	0.0612
